Where a name gives a salt, the structure may show the parent alone. Read-outs that look alike come from different tables or passages of the source.
Columns and labels:
[1] = test system: T. cruzi (Tulahuen strain); experiment: microbe, parasite or virus in culture; type: cell-based, Trypanosoma cruzi; details: for EC50: Trypanosoma cruzi, TULAHUEN, Fibroblast, read-out: T. cruzi EC50 (nM)
Experimental: Compounds were tested against T. cruzi (Tulahuen strain) stably expressing the beta-galactosidase gene as previously described. […] Fibroblasts were plated at a density of 2×10^3 per well in 96 well tissue culture plates. After 24 hours of incubation, 1×10^4 trypomastigotes/well were added to the fibroblasts and incubated for 4 hours before addition of the test compounds from the Spectrum Collection (10 µM final concentration). Cultures were incubated at 37°C for 5 days, then developed with chlorophenol red β-D-galactopyranoside as previously described. The percent inhibition is reported with standard deviation of the mean. […] Z-prime values were calculated for each 96-well plate based on positive (4 wells) and negative controls (4 wells).

in vitro = type: cell-based, murine; details: mouse, Mammalian cell CC50 (nM)
T. cruzi = details: read-out: anti-T. cruzi activity EC50; cited from earlier work

Structure (SMILES)	EC50 [1] [nM]	CC50 (in vitro) [nM]	also measured
Clc1ccc2c(c1)C(N1CCNCC1)=Nc1ccccc1O2 [AMOXAPINE, 13-chloro-10-(piperazin-1-yl)-2-oxa-9-azatricyclo[9.4.0.0^{3,8}]pentadeca-1(15),3,5,7,9,11,13-heptaene]	9350		
COc1ccc(CCN2CCC(Nc3nc4ccccc4n3Cc3ccc(F)cc3)CC2)cc1 [ASTEMIZOLE, 1-[(4-fluorophenyl)methyl]-N-{1-[2-(4-methoxyphenyl)ethyl]piperidin-4-yl}-1H-1,3-benzodiazol-2-amine]	880		
Clc1ccccc1C(c1ccccc1)(c1ccccc1)n1ccnc1 [CLOTRIMAZOLE, 1-[(2-chlorophenyl)diphenylmethyl]-1H-imidazole]	1		
CN1CCCC1CCOC(C)(c1ccccc1)c1ccc(Cl)cc1 (stereo not shown) [Clemastine, 2-{2-[1-(4-chlorophenyl)-1-phenylethoxy]ethyl}-1-methylpyrrolidine]		24000	
CN(C)CCCN1c2ccccc2CCc2ccc(Cl)cc21 [Clomipramine, (3-{5-chloro-2-azatricyclo[9.4.0.0^{3,8}]pentadeca-1(15),3,5,7,11,13-hexaen-2-yl}propyl)dimethylamine hydrochloride]		11000	
CNCCC(Oc1ccc(C(F)(F)F)cc1)c1ccccc1 (stereo not shown) [Fluoxetine, methyl({3-phenyl-3-[4-(trifluoromethyl)phenoxy]propyl})amine hydrochloride]		15800	EC50 (T. cruzi): 7 µM
CNC1CCC(c2ccc(Cl)c(Cl)c2)c2ccccc21 (stereo not shown) [Sertraline, 4-(3,4-dichlorophenyl)-N-methyl-1,2,3,4-tetrahydronaphthalen-1-amine hydrochloride]		7600	
CSc1ccc2c(c1)N(CCC1CCCCN1C)c1ccccc1S2 (stereo not shown) [Thioridazine, 10-[2-(1-methylpiperidin-2-yl)ethyl]-2-(methylsulfanyl)-10H-phenothiazine]			Selectivity index [1]: 2.9; EC50 ([1]; 120 h): 2600 nM
